± gives the uncertainty stated by the source. The sequences are guide strands of siRNAs; only the seed at positions 2 to 7 varies.
What was measured:
3LL = assay: cell viability relative to siNT1 control; higher = less toxic; details: concentration: 10 nM; 96 h; Mus musculus;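 further: Luminescence-based viability of cells reverse transfected in 384-well plates with lipid-complexed siRNAs built on a non-toxic 19mer backbone whose passenger strand carries 2′-O-methyl groups at positions 1 and 2, triplicates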
Protocol: (§1)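 Arrayed screen of 4096 siRNA duplexes, each carrying one of all possible 6mer seeds at guide-strand positions 2-7 in a fixed neutral 19mer scaffold (constant flanks: U at position 1, then ACAUGUAAACCA, plus a 3' AA overhang). The passenger strand is 2'-O-methylated at positions 1-2 so only the guide strand loads into RISC. Duplexes were reverse-transfected at 10 nM with RNAiMAX in triplicate in 384-well plates; viability was read by CellTiter-Glo ATP content 96 h after transfection. Values are % viability normalised to lipid-only wells (HeyA8, H460, M565) or to siNT1 (3LL).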

H460 = assay: cell viability relative to lipid-only control; HeyA8 human ovarian and H460 human lung cancer; M565 mouse liver and 3LL mouse lung cancer; siNT1 is a non-toxic control siRNA; higher = less toxic; details: concentration: 10 nM; 96 h; Homo sapiens
Protocol: as §1

HeyA8 = assay: as above; details: concentration: 10 nM; 96 h; Homo sapiens
Protocol: as §1

M565 = assay: as above; details: concentration: 10 nM; 96 h; Mus musculus
Protocol: as §1
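Wherever cell viability relative to lipid-only control is given: reverse lipid transfection in 384-well plates, in triplicate, of duplexes on a non-toxic 19mer backbone with passenger strand 2′-O-methylated at positions 1 and 2, luminescence viability read-out.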

Row | Sequence | cell viability (3LL) [%] | cell viability (H460) [%] | cell viability (HeyA8) [%] | cell viability (M565) [%]
1 | UACUUCGACAUGUAAACCAAA | 92.5 ± 8.8 | 85.2 ± 12 | 72 ± 5.1 | 70.7 ± 2.9
2 | UUACACCACAUGUAAACCAAA | 22.8 ± 2.6 | 18.1 ± 1.4 | 16.5 ± 2.9 | 32.7 ± 8.6
3 | UGAAUGGACAUGUAAACCAAA | 14.8 ± 5.3 | 41.4 ± 2.7 | 13.2 ± 0.51 | 6.05 ± 0.3
4 | UCGAAAGACAUGUAAACCAAA | 85.9 ± 16 | 71.4 ± 2 | 85.6 ± 1.1 | 63.8 ± 8.1
5 | UACACUGACAUGUAAACCAAA | 89.2 ± 14 | 82.2 ± 20 | 77.8 ± 2.2 | 67.5 ± 14
6 | UAACCCUACAUGUAAACCAAA | 82.9 ± 6.3 | 80.1 ± 14 | 66.7 ± 6 | 53.8 ± 3.1
7 | UAUAAACACAUGUAAACCAAA | 106 ± 6.3 | 66.3 ± 4.1 | 93.7 ± 6.1 | 88.5 ± 14
8 | UUUAUUUACAUGUAAACCAAA | 93 ± 6.8 | 60.4 ± 2.6 | 81.4 ± 7.1 | 84.3 ± 5.6
9 | UGAUCUAACAUGUAAACCAAA | 92.4 ± 14 | 75.1 ± 11 | 69.5 ± 2.2 | 70.9 ± 6.5
10 | UAUGAUAACAUGUAAACCAAA | 113 ± 16 | 63.3 ± 6.8 | 93.2 ± 9.2 | 101 ± 12
11 | UGUCGAUACAUGUAAACCAAA | 62 ± 15 | 66.5 ± 11 | 58.6 ± 1.5 | 42.7 ± 2.9
12 | UCGAGUUACAUGUAAACCAAA | 79.9 ± 17 | 76.5 ± 18 | 69.6 ± 4.1 | 69.8 ± 8.3
13 | UGCUCUUACAUGUAAACCAAA | 58 ± 6.9 | 81.5 ± 10 | 68.3 ± 5.1 | 49.3 ± 7.5
14 | UCAGAGAACAUGUAAACCAAA | 96.3 ± 14 | 42.7 ± 4.1 | 76.9 ± 7.3 | 44.3 ± 2
15 | UCUCACGACAUGUAAACCAAA | 91.7 ± 14 | 14.2 ± 4.2 | 91.6 ± 6.6 | 71.3 ± 20
16 | UGUUGGCACAUGUAAACCAAA | 27.7 ± 2.3 | 36.4 ± 5.1 | 40.4 ± 7 | 21.7 ± 7.1
17 | UAUGGAAACAUGUAAACCAAA | 117 ± 16 | 104 ± 20 | 108 ± 4.4 | 82.6 ± 5.3
18 | UCUUUAGACAUGUAAACCAAA | 90.8 ± 12 | 65.1 ± 12 | 86 ± 7.1 | 61.7 ± 12
19 | UUCGUGGACAUGUAAACCAAA | 78.8 ± 14 | 49.7 ± 5 | 50.1 ± 10 | 46 ± 6.7
20 | UCAGUAGACAUGUAAACCAAA | 87 ± 12 | 57.2 ± 3.1 | 68.9 ± 8.8 | 85.6 ± 4.5
21 | UAGUUAAACAUGUAAACCAAA | 84.7 ± 8.3 | 65.3 ± 16 | 63.6 ± 3.2 | 69.6 ± 2.6
22 | UACGGUGACAUGUAAACCAAA | 83.7 ± 14 | 83.3 ± 4.6 | 84.2 ± 9.4 | 62.8 ± 4.3

Row | Sequence | cell viability (3LL) [%] | cell viability (H460) [%] | cell viability (HeyA8) [%] | cell viability (M565) [%]
23 | UACAUUAACAUGUAAACCAAA | 91.3 ± 3.4 | 71.2 ± 14 | 97.1 ± 8.9 | 83 ± 21
24 | UAAUAUCACAUGUAAACCAAA | 41.1 ± 7.8 | 81.2 ± 9.6 | 72.2 ± 3.3 | 82.8 ± 5.1
25 | UCGGGAUACAUGUAAACCAAA | 64.6 ± 13 | 54.9 ± 5.6 | 52.8 ± 4.4 | 23.7 ± 3.8
26 | UGUCUUAACAUGUAAACCAAA | 92.2 ± 16 | 61.7 ± 11 | 77 ± 8.9 | 67.4 ± 14
27 | UCUACCAACAUGUAAACCAAA | 93.8 ± 14 | 55.2 ± 4 | 86.2 ± 6 | 67.5 ± 6.2
28 | UGGCCUCACAUGUAAACCAAA | 53.1 ± 8.7 | 28 ± 4.1 | 6.53 ± 1.3 | 8.85 ± 6.7
29 | UACCACAACAUGUAAACCAAA | 81.8 ± 5.5 | 38.6 ± 6.3 | 88.2 ± 2.8 | 29 ± 2.9
30 | UUCGGCGACAUGUAAACCAAA | 84.8 ± 15 | 76.2 ± 4.2 | 78.4 ± 6.6 | 63.7 ± 3.5
31 | UGACCUUACAUGUAAACCAAA | 30.9 ± 0.61 | 25 ± 1.8 | 18.5 ± 0.52 | 13.6 ± 2.8
32 | UUGCUAUACAUGUAAACCAAA | 35.2 ± 3.3 | 44.6 ± 2 | 68.4 ± 3.6 | 77.2 ± 12
33 | UGCAUUGACAUGUAAACCAAA | 90 ± 15 | 59.3 ± 2.4 | 66.3 ± 25 | 61.8 ± 8.4
34 | UACUCGUACAUGUAAACCAAA | 87.9 ± 16 | 66.8 ± 13 | 77.3 ± 8.8 | 70.7 ± 19
35 | UUAACGGACAUGUAAACCAAA | 95.6 ± 8.4 | 70.9 ± 10 | 93.7 ± 9.3 | 107 ± 11
36 | UAAUCGUACAUGUAAACCAAA | 111 ± 11 | 83.3 ± 13 | 99.3 ± 8.9 | 81.6 ± 16
37 | UAGCAAGACAUGUAAACCAAA | 81 ± 5.2 | 81.6 ± 7.5 | 86.2 ± 10 | 40.6 ± 7.7
38 | UGCUAGGACAUGUAAACCAAA | 58.2 ± 12 | 44.1 ± 2.2 | 59.9 ± 4.5 | 26.9 ± 9
39 | UUCACAGACAUGUAAACCAAA | 70.9 ± 23 | 23.6 ± 3.6 | 84.5 ± 13 | 75.2 ± 7.5
40 | UAGCUCAACAUGUAAACCAAA | 70.1 ± 12 | 83.8 ± 5.7 | 75.8 ± 3.8 | 50.1 ± 7.4
41 | UUUCAUAACAUGUAAACCAAA | 112 ± 9.4 | 37.4 ± 3.3 | 97.8 ± 7.2 | 82.6 ± 9.7
42 | UCAUGCAACAUGUAAACCAAA | 80.3 ± 21 | 52 ± 6.5 | 60.8 ± 5 | 50.4 ± 7.4
43 | UGCGCUCACAUGUAAACCAAA | 32.5 ± 9.9 | 22.8 ± 6.6 | 10.5 ± 0.95 | 62.3 ± 6.8
44 | UCCAUAGACAUGUAAACCAAA | 84 ± 21 | 47.7 ± 9.2 | 78.8 ± 3.1 | 56.4 ± 2.9

From the supplement of paper PMC6206098
